Data reported in PubChem BioAssay AID588342 (National Center for Advancing Translational Sciences (NCATS), 2011).
Values joined by “and” are separate entries in the source; they are usually repeats but may differ in a detail not shown here. Identical values can stand only once. The whole screen tested about 360,000 compounds, of which about 25,000 (6.9%) were called active. The inconclusive results got no clear call from the source; some entries with a clear call stand among them for comparison. The call rests on the fitted dose curve; in most records, active means well fitted inhibition curve with a large enough effect; inconclusive means small, poorly fitted or top-dose-only effect; inactive means flat fitted curve, though single readings scatter. Potencies beside an inconclusive call are fits to weak or partial responses and may not hold up.

Biological target: Luciferin 4-monooxygenase (Photinus pyralis) (UniProt P08659)
Assay: qHTS profiling assay for firefly luciferase inhibitor/activator using purifed enzyme and Km concentrations of substrates (counterscreen for miR-21 project); further: nearly all actives have a fitted effect of over 55% in size;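 on activity change, negative = inhibition: plate controls were vehicle for no effect and reference inhibitor for full effect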
Conditions: purified FLuc, luminescence inhibition; activity change, negative = inhibition: at 57.5 µM (top of the series)
In short: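 Biochemical qHTS of compounds, final roughly 60 µM downward over six points, against 10 nM purified firefly luciferase using Km concentrations of substrates (10 uM D-luciferin, 10 uM ATP) in Tris acetate pH 7.5 buffer; luminescence output.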
Potency means the concentration at half of the fitted maximal effect; tags describe the fitted curve by direction and shape.

UniProt P08659, sequence (P08659 whole entry, looked up): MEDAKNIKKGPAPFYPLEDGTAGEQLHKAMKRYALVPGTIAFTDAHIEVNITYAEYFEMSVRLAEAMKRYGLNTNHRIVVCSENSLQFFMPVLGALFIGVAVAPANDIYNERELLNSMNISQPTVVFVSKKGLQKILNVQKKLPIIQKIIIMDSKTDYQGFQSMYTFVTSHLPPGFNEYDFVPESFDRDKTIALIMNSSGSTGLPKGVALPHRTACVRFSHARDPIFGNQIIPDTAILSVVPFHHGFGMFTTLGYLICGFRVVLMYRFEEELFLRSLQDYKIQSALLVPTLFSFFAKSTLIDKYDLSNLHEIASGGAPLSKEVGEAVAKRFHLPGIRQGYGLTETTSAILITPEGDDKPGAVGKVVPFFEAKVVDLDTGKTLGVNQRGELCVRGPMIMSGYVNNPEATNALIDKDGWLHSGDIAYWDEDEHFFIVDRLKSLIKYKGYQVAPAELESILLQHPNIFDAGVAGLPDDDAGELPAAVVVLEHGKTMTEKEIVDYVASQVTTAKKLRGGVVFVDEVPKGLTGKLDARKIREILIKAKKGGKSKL

Compound	activity change, negative = inhibition	Potency
CCN1CCc2c(sc(NC(=O)c3ccc(S(=O)(=O)N4CCCC(C)C4)cc3)c2C(=O)OC)C1 (stereo not given)	inactive: -0.985%	
CCCCn1c(C)cc2c(c1=O)[C@H]1O[C@](CCCC)(Cc3c1ccc1ccccc31)O2	inactive: 1.45% [at 11.5 µM]	
N#Cc1ccsc1NC(=O)c1ccccn1		inconclusive: 23.9 µM [inhibitor, partial curve, poor fit]
O=C(COC(=O)c1cc(-c2ccco2)nc2ccccc12)NCc1ccccc1		inconclusive: 26.9 µM [inhibitor, partial curve, poor fit]
Cc1cc(C(=O)CN2C(=O)NC3(CCCCCC3)C2=O)c(C)n1C		inconclusive: 37.9 µM [inhibitor, partial curve, poor fit]
O=S1(=O)c2ccccc2N(Cc2ccccc2F)c2ccccc21		inconclusive: 12 µM [inhibitor, partial curve, poor fit]
CC(C)(C)c1ccc(CN2N=Nc3ccccc3S2(=O)=O)cc1		inconclusive: 30.1 µM [inhibitor, partial curve]
N/C(Cc1cccc2ccccc12)=N\OC(=O)Cc1cccs1		inconclusive: 26.9 µM [inhibitor, single point]
CCN(CC)CCNCc1cc(Cl)c(OCC(=O)Nc2ccccc2)c(OC)c1	inactive: 1.6%	
O=[N+]([O-])C(=C1Nc2ccccc2N1)/C(Cl)=C(/Cl)Br		inconclusive: 37.9 µM [inhibitor, partial curve, poor fit]
COc1ccc(N2CCN(C(=O)CSc3ncccc3-c3nc4ccccc4[nH]3)CC2)cc1		active: 10.7 µM
Cc1nnc(NC(=O)c2ccc(S(=O)(=O)N3CCc4ccccc4C3)cc2)o1		inconclusive: 23.9 µM [inhibitor, partial curve, poor fit]
COc1ccc(OCC(=O)N/N=C(\C)CC(=O)Nc2ccc(OC)cc2[N+](=O)[O-])cc1		inconclusive: 1.69 µM [inhibitor, partial curve]
Cc1ccc(NC(=O)CN(C)S(=O)(=O)c2cccc3nsnc23)cc1Cl		inconclusive: 16.9 µM [inhibitor, partial curve]
CCCCOc1ccc(-c2nnn(C(C)(C)C(=O)OC)n2)cc1		inconclusive: 37.9 µM [inhibitor, single point]
COc1ccc(NC(=O)c2oc3ccccc3c2NC(=O)c2ccco2)c(OC)c1		inconclusive: 15.1 µM [inhibitor, partial curve, poor fit]
Cc1cccc(-n2ncc3c(NCCc4ccc(S(N)(=O)=O)cc4)ncnc32)c1		inconclusive: 37.9 µM [inhibitor, partial curve, poor fit]
NC(=O)N1c2ccccc2C=Cc2ccccc21		inactive
c1ccc2c(c1)[nH]c1c3ccccc3sc21		inconclusive: 13.5 µM [inhibitor, partial curve]
COC(=O)CSc1nnc(-c2sc3ccccc3c2Cl)o1		active: 5.36 µM
CCCCOC(=O)c1ccc(NC(=O)C2CCCO2)cc1 (stereo not given)		inconclusive: 23.9 µM [inhibitor, partial curve]
COC(=O)c1sc2ccccc2c1-n1cccc1C(=O)C(=O)Nc1ccc(F)cc1	inactive: -2.53%	
O=C(Nc1cccnc1Cl)c1noc2c1CCc1ccccc1-2		inconclusive: 3.38 µM [inhibitor, partial curve, poor fit]
CCOC(=O)c1cc2ccc(OC)cc2oc1=O		inconclusive: 19 µM [inhibitor, single point]

Compound	activity change, negative = inhibition	Potency
O=C(O)COc1ccccc1/C=N/NC(=O)CSc1nnc(SCc2cccc3ccccc23)s1		active: 19 µM
Cc1nc(Cl)sc1C(=O)Nc1ccccc1	inactive: -16.5%	
Cc1cc(C)nc(NC(=O)c2c(-c3ccccc3Cl)noc2C)n1	inactive: 4.6%	
COc1cccc(-c2cc(C(=O)NCCCn3ccnc3)no2)c1		inconclusive: 30.1 µM [inhibitor, partial curve, poor fit]
CCN(CC)S(=O)(=O)c1cc(C(=O)Nc2ccc(Cl)cn2)ccc1C		active: 2.39 µM
O=C(NCc1ccccc1Cl)c1nnc(Cc2cccc(F)c2)o1	inactive: -15.6%	
CCCc1nc2ccc(NC(=O)c3cccs3)cc2c(=O)n1Cc1ccccc1Cl	inactive: 10.7%	
Cc1cccc(C)c1Nc1ncnc2ccccc12	inactive: 2.52%	
CCOC(=O)Cn1nc(-c2ccc(C)cc2)ccc1=O		inconclusive: 23.9 µM [inhibitor, partial curve, poor fit]
Cc1ccc2oc(-c3ccc(C)c(NC(=O)/C=C/c4ccco4)c3)nc2c1		active: 12 µM
CC(C)c1ccc(NC2CCCN(C(=O)c3cccc4nccnc34)C2)cc1 (stereo not given)	inactive: 2.95%	
CCc1nnc(NC(=O)c2cccc(NC(=O)C(C)C)c2)s1		inconclusive: 26.9 µM [inhibitor, partial curve]
CCOc1cc(NC(=O)c2ccco2)c(OCC)cc1NC(=O)Cc1ccc(OC)c(OC)c1	inactive: 4.48%	
CCOC(=O)N/N=C/c1c(C)nn(-c2ccccc2Cl)c1Cl		active: 9.53 µM
O=C(Cn1cnc2sc(-c3ccccc3)cc2c1=O)NCc1ccco1		inconclusive: 16.9 µM [inhibitor, partial curve, poor fit]
O=C(CSc1ccccc1C(=O)O)NCc1ccc(Cl)cc1		inconclusive: 23.9 µM [inhibitor, single point]
O=C1Nc2ccccc2/C1=N/c1sc2c(c1C(=O)NCCc1ccccc1)CCCC2		inconclusive: 23.9 µM [inhibitor, single point]
Cc1ccc(C(=O)Nc2cc3[nH]c(=O)oc3cc2C)cc1	inactive: -16.3%	
CC1=C(C#N)C(c2ccccc2)C2=C(N1)c1ccccc1C2=O (stereo not given)	inactive: -17.6%	
COc1ccc(Cl)cc1Nc1nc(-c2cccnc2)cs1		inconclusive: 26.9 µM [inhibitor, single point]
CN(C)c1ccc(CNC(=O)CCCN2C(=O)c3cccnc3Oc3ccc(Cl)cc32)cc1	inactive: 0.0362%	
O=C(Nc1ccc(Cl)cc1)NC1CCCC1Cc1ccco1 (stereo not given)		inconclusive: 23.9 µM [inhibitor, single point]
Cn1c(=O)c2c(nc(N/N=C/c3cccs3)n2Cc2ccccc2)n(C)c1=O	inactive: -13.1%	
Cc1cc(N2CCC(C)CC2)nc2ccc(NC(=O)Cc3ccccc3Br)cc12	inactive: -7.02%	

Compound	activity change, negative = inhibition	Potency
COc1ccc(/C=C/C(=O)Nc2ccccc2C(F)(F)F)cc1		inconclusive: 1.9 µM [inhibitor, partial curve, poor fit]
CCOC(=O)CSc1nc2cc3c(cc2cc1C)OCO3	inactive: 2.27%	
COc1cc2nc(Nc3cccc(F)c3)nc(N)c2cc1OC		inconclusive: 13.5 µM [inhibitor, partial curve, poor fit] and inconclusive: 26.9 µM [inhibitor, single point]
O=C1C2C3C=CC(C3)C2C(=O)N1c1ccc(-c2nc3ccccc3c(=O)o2)cc1 (stereo not given)		active: 9.53 µM
N/C(=N\OC(=O)c1cccc(Cn2cc(C(F)(F)F)ccc2=O)c1)c1ccccc1		inconclusive: 19 µM [inhibitor, partial curve, poor fit]
O=C(Nc1ccc(Cl)cc1)c1ccc2nsnc2c1		inconclusive: 5.36 µM [inhibitor, full curve]
Cc1cn(CCC(=O)Nc2ccccc2N2CCOCC2)c2ccccc12		inconclusive: 21.3 µM [inhibitor, partial curve, poor fit]
Nc1ccc(SCCN2C(=O)c3ccccc3C2=O)cc1		inconclusive: 19 µM [inhibitor, single point]
COC(=O)Cn1ncc2c3ccccc3n(C)c2c1=O		inconclusive: 23.9 µM [inhibitor, single point]
CCCCSc1nnc2c(n1)OC(c1ccc(Br)s1)Nc1ccccc1-2 (stereo not given)		inconclusive: 30.1 µM [inhibitor, single point]
O=C(O)c1cc(-c2cccs2)nn1-c1ccccc1		inconclusive: 12 µM [inhibitor, partial curve]
Cc1cccc(N2CCN(C(=O)/C=C/c3cccs3)CC2)c1C		inconclusive: 23.9 µM [inhibitor, partial curve, poor fit]
CCOC(=O)C(C)Sc1nnc(NC(=O)c2ccc(C)c([N+](=O)[O-])c2)s1 (stereo not given)		inconclusive: 26.9 µM [inhibitor, single point]
CCOc1ccccc1NC(=O)c1ccc2c(=O)n3c(nc2c1)CCCCC3		inconclusive: 23.9 µM [inhibitor, single point]
O=C(Nc1ccc(NC(=O)c2ccco2)cc1)c1cnccn1		inconclusive: 19 µM [inhibitor, partial curve]
Cc1ccc(-n2c(CSc3nc(C)cc(C)n3)nnc2SCC(=O)Nc2nccs2)cc1	inactive: -1.58%	
Cc1nc(N2CCCCC2)c(C#N)c(C)c1[N+](=O)[O-]		inconclusive: 19 µM [inhibitor, partial curve, poor fit]
COc1ccc2nc(NC(=O)CSc3nc4cccnc4n3C)sc2c1	inactive: -3.34%	
CCOC(=O)c1c(C)[nH]c(C(=O)COC(=O)c2ccc(O)cc2O)c1C		inconclusive: 2.69 µM [inhibitor, full curve]
CCCCOc1ccc(C(=O)N/C(=C/C=C/c2ccccc2)C(=O)NCCO)cc1		inconclusive: 26.9 µM [inhibitor, single point]
Cc1ccc(/C=C/C(=O)NCCc2cccc(Cl)c2)o1		inconclusive: 26.9 µM [inhibitor, single point]
CCOC(=O)Cn1ccc(NC(=O)COc2ccc(F)cc2)n1		inconclusive: 26.9 µM [inhibitor, partial curve, poor fit]
